{"source": "PubChem BioAssay AID2147", "about": "(National Center for Advancing Translational Sciences (NCATS), 2009)", "note": "The whole screen tested about 230,000 compounds, of which about 3,600 (1.6%) were called active. Inconclusive results, whose numbers are uncertain, are shown with a selection of clear calls. Calls come from the whole dose curve; as a rule, active = well fitted inhibition curve with a large enough effect (not every such curve was filed as active); inconclusive = small, poorly fitted or top-dose-only effect, or another doubt; inactive = no such curve, though single readings can be large or run the other way. Where the call is inconclusive, the potency comes from a doubtful curve fit. Note: nearly all actives have a fitted effect of over 50% in size. Potency is the fitted concentration of half-maximal effect; tags give direction and shape of the fitted curve.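 Throughout, for activity change, negative = inhibition: 0% = wells with enzyme and -100% = buffer wells without enzyme.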", "data": [{"biological_target": "Lysine-specific demethylase 4E (Homo sapiens) (UniProt B2RXH2)", "sequence (B2RXH2 whole entry, looked up, the tested form may be a part)": "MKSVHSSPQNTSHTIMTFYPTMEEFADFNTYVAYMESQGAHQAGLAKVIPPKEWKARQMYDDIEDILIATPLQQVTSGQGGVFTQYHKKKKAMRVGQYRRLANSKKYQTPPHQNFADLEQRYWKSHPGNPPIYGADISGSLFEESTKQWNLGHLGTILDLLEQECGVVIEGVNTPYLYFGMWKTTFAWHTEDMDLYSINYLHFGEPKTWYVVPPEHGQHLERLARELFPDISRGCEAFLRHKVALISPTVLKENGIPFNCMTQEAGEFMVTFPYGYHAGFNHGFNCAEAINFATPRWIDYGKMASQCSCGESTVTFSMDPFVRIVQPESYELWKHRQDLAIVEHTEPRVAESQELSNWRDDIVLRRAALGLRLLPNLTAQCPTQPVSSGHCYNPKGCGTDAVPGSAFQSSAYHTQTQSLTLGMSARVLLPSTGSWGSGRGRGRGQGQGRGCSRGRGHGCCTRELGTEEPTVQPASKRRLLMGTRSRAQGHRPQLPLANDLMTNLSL", "test": "qHTS Assay for Inhibitors of Human Jumonji Domain Containing 2E (JMJD2E)", "conditions": "JMJD2E catalytic domain, FDH-coupled NADH fluorescence (FDH is formaldehyde dehydrogenase); series mostly up to 57.1 µM; activity change, negative = inhibition: at the top concentration", "values": [{"smiles": "Cc1cc(Br)ccc1OCCn1ccnc1", "Potency": "inconclusive: 25.1 µM [inhibitor, single point]"}, {"smiles": "CCOC(=O)C1=C(C)NC2=C(C(=O)CCC2)C1c1cn(Cc2ccc(Cl)cc2Cl)nc1-c1ccccc1", "note": "(stereo not drawn)", "Potency": "inconclusive: 11.2 µM [inhibitor, partial curve]"}, {"smiles": "COc1ccc(/C=N/NC(=O)c2ccco2)cc1Cn1nc(C)cc1C", "Potency": "inconclusive: 14.1 µM [inhibitor, partial curve]"}, {"smiles": "CCOc1ccc(C(=O)c2nc3c(n2O)CCCCC3)cc1", "Potency": "inconclusive: 39.8 µM [inhibitor, single point]"}, {"smiles": "CC(NC(=O)c1ccc(Br)cc1)C(=O)NC1=NCCS1", "note": "(stereo not drawn)", "activity change, negative = inhibition": "inactive: -15.3%"}, {"smiles": "COc1ccc(-n2nc3c(c2NC(=O)c2ccc(S(=O)(=O)N4CCOCC4)cc2)CS(=O)(=O)C3)cc1", "activity change, negative = inhibition": "inactive: -8.75%"}, {"smiles": "COc1ccc(/C=N/NC(=O)c2ccccc2O)cc1Cn1cc([N+](=O)[O-])cn1", "Potency": "inconclusive: 12.6 µM [inhibitor, partial curve]"}, {"smiles": "COC(=O)c1ccc(COc2ccc(/C=N/Nc3nc(C)cc(=O)[nH]3)cc2)cc1", "Potency": "inconclusive: 39.8 µM [inhibitor, single point]"}, {"smiles": "COc1ccc(C(=S)N2CCN(C)CC2)cc1Br", "activity change, negative = inhibition": "inactive: 4.86%"}, {"smiles": "C=CCn1c(SCC(=O)Nc2nccs2)nnc1-c1cc2cccc(OC)c2o1", "Potency": "inconclusive: 20 µM [inhibitor, partial curve]"}, {"smiles": "COC(=O)Cn1c(=NC(=O)c2ccc(OC)cc2)sc2cc(OC)ccc21", "Potency": "inconclusive: 31.6 µM [inhibitor, partial curve]"}, {"smiles": "Cc1ccc(-c2n[nH]c(=S)n2/N=C/c2ccc(C)s2)cc1", "activity change, negative = inhibition": "inactive: 0.953%"}, {"smiles": "COc1ccc(-n2c(=O)cc(N3CCc4ccccc43)[nH]c2=O)cc1", "activity change, negative = inhibition": "inactive: -8.55%"}, {"smiles": "COc1cc(/C=C/C(=O)NCc2cccnc2)cc(OC)c1OC", "Potency": "inconclusive: 31.6 µM [inhibitor, partial curve]"}, {"smiles": "c1cnn(-c2cncc(-n3cccn3)n2)c1", "Potency": "inconclusive: 22.4 µM [inhibitor, partial curve]"}, {"smiles": "C=C(C(=O)c1ccccc1)C(C)CC(=O)c1ccccc1", "note": "(stereo not drawn)", "activity change, negative = inhibition": "inactive: 0.711%"}, {"smiles": "CCc1cccc(CC)c1N(COC)C(=O)Cn1ccccc1=N", "Potency": "inconclusive: 39.8 µM [inhibitor, single point]"}, {"smiles": "CCOC(=O)c1cn(CC)c2cc(N3CCOCC3)c(F)cc2c1=O", "Potency": "inconclusive: 35.5 µM [inhibitor, partial curve]"}, {"smiles": "CC(=O)Oc1ccc2c(c1OC(C)=O)OCC1(O)Cc3c(cc(OC(C)=O)c(OC(C)=O)c3OC(C)=O)C21", "note": "(stereo not drawn)", "activity change, negative = inhibition": "inactive: -24.6%"}, {"smiles": "OCc1cc(CO)c(O)c(CCc2ccccc2)n1", "Potency": "inconclusive: 25.1 µM [inhibitor, partial curve]"}, {"smiles": "CCCc1cc(C(N)=O)c(NC(=O)c2ccoc2C)s1", "activity change, negative = inhibition": "inactive: -15.3%"}, {"smiles": "CC(C)NCC(O)Cn1c2c(c3ccccc31)CCc1c-2cnn1-c1ccccc1", "note": "(stereo not drawn)", "Potency": "inconclusive: 31.6 µM [inhibitor, partial curve]"}, {"smiles": "Cn1c(=O)c2[nH]c(CNc3ccc(C(=O)O)cc3)nc2n(C)c1=O", "Potency": "inconclusive: 14.1 µM [inhibitor, partial curve]"}, {"smiles": "CCOC(=O)N1CCC(NC(=O)c2cc3c(-c4ccc(Cl)cc4)nn(C)c3s2)CC1", "Potency": "inconclusive: 2.51 µM [inhibitor, partial curve]"}, {"smiles": "CCc1c(C)nc2cc(-c3cc(OC)cc(OC)c3)nn2c1N1CCCC1", "Potency": "inconclusive: 31.6 µM [inhibitor, single point]"}, {"smiles": "CCN1C(=O)/C(=C2/C=CC=CN2C)SC1=S", "activity change, negative = inhibition": "inactive: -20.6%"}, {"smiles": "O=C(O/N=C\\c1ccc(N2CCOCC2)c([N+](=O)[O-])c1)c1ccc(F)cc1", "activity change, negative = inhibition": "inactive: -3.5%"}, {"smiles": "CCOc1cc(/C=N/N=C2/NC(=O)C(CC(=O)O)S2)ccc1OCc1ccc(Cl)cc1Cl", "note": "(stereo not drawn)", "Potency": "inconclusive: 39.8 µM [inhibitor, single point]"}, {"smiles": "O=C(N/N=C/c1ccc([N+](=O)[O-])o1)c1ccncc1", "activity change, negative = inhibition": "inactive: -7.13%"}, {"smiles": "N#Cc1ccc(CS(=O)(=O)c2nnnn2-c2ccccc2)cc1", "activity change, negative = inhibition": "inactive: -5.61%"}, {"smiles": "CCOC(=O)C(Sc1ncn[nH]1)c1ccccc1", "note": "(stereo not drawn)", "Potency": "inconclusive: 39.8 µM [inhibitor, single point]"}, {"smiles": "COc1ccc(N2C(=O)CC(Sc3nnc(-c4ccccc4)o3)C2=O)cc1", "note": "(stereo not drawn)", "activity change, negative = inhibition": "inactive: 1.1%"}, {"smiles": "CCOc1ccc(N2C(=O)C3Sc4[nH]c(=O)sc4C(/C=C/c4ccccc4)C3C2=O)cc1", "note": "(stereo not drawn)", "activity change, negative = inhibition": "inactive: -8.44%"}, {"smiles": "Cc1noc(/C=C/c2ccco2)c1S(=O)(=O)N1CCC(C(=O)N2CCc3ccccc32)CC1", "Potency": "inconclusive: 39.8 µM [inhibitor, single point]"}, {"smiles": "CCS(=O)(=O)Nc1ccc(-c2nnc(SCC(=O)c3ccc(NC(C)=O)c(OC)c3)o2)cc1", "activity change, negative = inhibition": "inactive: 1.35%"}, {"smiles": "CC(=O)NNc1cccc(Cl)n1", "activity change, negative = inhibition": "inactive: -2.15%"}, {"smiles": "CC(C)(C)c1ccccc1NC(=O)Cn1c(=O)cnc2ccccc21", "Potency": "inconclusive: 31.6 µM [inhibitor, partial curve]"}, {"smiles": "Cc1cc2c(c(=O)n1CC1CCCO1)C(c1ccc3c(c1)OCO3)C(C#N)=C(N)O2", "note": "(stereo not drawn)", "activity change, negative = inhibition": "inactive: -1.88%"}, {"smiles": "CCCN(Cc1ccccc1)C(=S)NC(=O)c1ccccc1[N+](=O)[O-]", "activity change, negative = inhibition": "inactive: 0.557%"}, {"smiles": "COc1ccc(CNC(=O)CSc2cccc3cccnc23)cc1", "Potency": "inconclusive: 31.6 µM [inhibitor, partial curve]"}, {"smiles": "CCCn1c(SCC(=O)c2cc(C)n(-c3ccc4c(c3)OCO4)c2C)n[nH]c1=O", "activity change, negative = inhibition": "inactive: 2.69%"}, {"smiles": "Cc1ccc(/C=C2\\CC(C)CC3=C2NC(=S)NC3c2ccc(C)cc2)cc1", "note": "(stereo not drawn)", "Potency": "inconclusive: 35.5 µM [inhibitor, single point]"}, {"smiles": "CCOC(=O)c1c(CN2CCC(C)CC2)oc2ccc(OC)cc12", "Potency": "inconclusive: 39.8 µM [inhibitor, single point]"}, {"smiles": "CSc1nc2n(n1)C(C)C1=C(CCCC1=O)N2", "note": "(stereo not drawn)", "Potency": "inconclusive: 31.6 µM [inhibitor, partial curve]"}, {"smiles": "COCCCN(C(=S)Nc1c(C)cc(C)cc1C)C(C)c1ccccn1", "note": "(stereo not drawn)", "activity change, negative = inhibition": "inactive: 4.97%"}, {"smiles": "O=C(CN1CCN(c2ccc(Cl)cc2)CC1)NCc1ccccc1", "activity change, negative = inhibition": "inactive: 0.32%"}, {"smiles": "O=C(Cc1noc2ccccc12)Nc1ccc2ccccc2c1", "Potency": "inconclusive: 7.08 µM [inhibitor, single point]"}, {"smiles": "O=C(Nc1nnc(C2CC2)s1)c1cc([N+](=O)[O-])ccc1N1CCCCC1", "activity change, negative = inhibition": "inactive: 3.98%"}]}]}
